Laboratory results from the supplement of paper PMC9174493.
The list shows a part of the results. Single values of this set are uncertain. Values with irradiation are relative to irradiated vehicle.

What follows are compounds tested on A549-Dual (assay: NF-kB reporter (SEAP) activity, viability-corrected, relative to vehicle (fold change vs vehicle); higher = more activation of STING-IRF / NF-kB immune response reporter). Details: 10 µM; irradiation: 8 Gy/4 fr.
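Note: viability correction based on the alamar blue assay, with concentrations leaving 10% survival or less dropped.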

Row | Compound | NF-kB reporter
1 | CCOC(=O)n1ccn(C)c1=S [Carbimazole] | 0.829
2 | OCC(O)CN1CCN(c2ccccc2)CC1 (stereo not given) [Dropropizine] | 1.12
3 | Cc1cc(=O)n(-c2ccccc2)n1C [Antipyrine] | 0.905
4 | COc1ccc(CCNCC(O)COc2cccc(C)c2)cc1OC.Cl (stereo not given) [Bevantolol hydrochloride] | 0.945
5 | CC(O)C1C(=O)N2C(C(=O)OCOC(=O)C(C)(C)C)=C(SC3CN(C4=NCCS4)C3)C(C)C12 (stereo not given) [Tebipenem Pivoxil] | 0.87
6 | COC(=O)c1ccc(O)cc1 [Methyl 4-hydroxybenzoate] | 0.767
7 | O=C(O)CCCCC1CCSS1 (stereo not given) [Thioctic acid] | 1.2
8 | CCN(CC)CCOC(=O)C(c1ccccc1)C1CCCCC1.Cl (stereo not given) [Drofenine Hydrochloride] | 0.848
9 | Cc1ccc(Sc2ccccc2N2CCNCC2)c(C)c1 [Vortioxetine] | 0.598
10 | O=C1C(CCC(O)c2ccc(F)cc2)C(c2ccc(O)cc2)N1c1ccc(F)cc1 (stereo not given) [Ezetimibe] | 0.728
11 | O=C(Cn1cnnn1)NC1C(=O)N2C(C(=O)[O-])=C(CSc3nncs3)CSC12.[Na+] (stereo not given) [Ceftezole sodium] | 0.895
12 | Nc1ccc(O)cc1 [4-Aminophenol] | 1.2
13 | Cl.O=C(O)/C=C/c1ccc(Cn2ccnc2)cc1 [Ozagrel HCl] | 0.806
14 | CCCCC(CC)COC(=O)C=Cc1ccc(OC)cc1 (stereo not given) [Octinoxate] | 0.763
15 | NC(CSCCCO)C(=O)O (stereo not given) [Fudosteine] | 0.741
16 | CN1C2CCCC1CC(NC(=O)c1nn(C)c3ccccc13)C2 (stereo not given) [Granisetron] | 0.891
17 | COc1cc2c(cc1OC)C1Cc3ccc(OC)c(OC)c3CN1CC2.Cl (stereo not given) [Tetrahydropalmatine hydrochloride] | 0.75
18 | CC1(C)CC1C(=O)N/C(=C\CCCCSCC(N)C(=O)O)C(=O)O (stereo not given) [Cilastatin] | 1.43
19 | C=CCc1ccc(O)c(OC)c1 [Eugenol] | 0.936
20 | CC(CN1CC(=O)NC(=O)C1)N1CC(=O)NC(=O)C1.Cl (stereo not given) [Dexrazoxane HCl (ICRF-187, ADR-529)] | 0.835

Row | Compound | NF-kB reporter
21 | C/C(=C(\CCOC(=O)C(C)C)SS/C(CCOC(=O)C(C)C)=C(/C)N(C=O)Cc1cnc(C)nc1N)N(C=O)Cc1cnc(C)nc1N [Sulbutiamine] | 0.582
22 | COC(=O)c1ccc2c(c1)NC(=O)/C2=C(\Nc1ccc(N(C)C(=O)CN2CCN(C)CC2)cc1)c1ccccc1 [Nintedanib (BIBF 1120)] | 1.26
23 | Clc1ccc(Cn2c(CN3CCCC3)nc3ccccc32)cc1 [Clemizole] | 0.442
24 | Cc1nnc(SCC2=C(C(=O)O)N3C(=O)C(NC(=O)Cn4cc(Cl)c(=O)c(Cl)c4)C3SC2)s1 (stereo not given) [Cefazedone] | 0.795
25 | CC(C)(C)C(=O)OCOC(=O)C1N2C(=O)C(N=CN3CCCCCC3)C2SC1(C)C.Cl (stereo not given) [Pivmecillinam hydrochloride] | 0.93
26 | O=C(O)c1cc(=O)[nH]c(=O)[nH]1 [Orotic acid (6-Carboxyuracil)] | 1.14
27 | CN(C)CCOC(=O)C(c1ccccc1)C1(O)CCCC1.Cl (stereo not given) [Cyclopentolate Hydrochloride] | 0.941
28 | OCC(O)C(O)C(OC1OC(CO)C(O)C(O)C1O)C(O)CO (stereo not given) [Maltitol] | 0.892
29 | [OH][Al]([OH])[OH] [Aluminium hydroxide] | 1.37
30 | O=C(NCc1c(F)cc(F)cc1F)c1cn2c(c(O)c1=O)C(=O)N1C3CCC(C3)OC1C2 (stereo not given) [Bictegravir] | 1.19
31 | Cn1nnnc1SCC1=C(C(=O)[O-])N2C(=O)C(NC(=O)C(OC=O)c3ccccc3)C2SC1.[Na+] (stereo not given) [Cefamandole nafate] | 0.973
32 | CCC(NC(C)C)C(O)c1ccc(O)c2[nH]c(=O)ccc12.Cl (stereo not given) [Procaterol HCl] | 0.699
33 | CNCC(O)C(O)C(O)C(O)CO.CNCC(O)C(O)C(O)C(O)CO.O=C(O)CN1CCN2CCN(CC(=O)O)CC(=O)[O][Gd]([O]C(=O)C2)[O]C(=O)C1 [Gadopentetate Dimeglumine] | 1.62
34 | O=C(C1CCCCC1)N1CC(=O)N2CCc3ccccc3C2C1 (stereo not given) [Praziquantel] | 0.523
35 | CC(=O)OCC(COC(C)=O)OC(C)=O [Triacetin] | 0.941
36 | C#CC1(OC(C)=O)CCC2C3CCC4=CC(OC(C)=O)CCC4C3CCC21C (stereo not given) [Ethynodiol diacetate] | 0.604
37 | O=C1CC(c2ccc(O)c(O)c2)Oc2cc(O)cc(O)c21 (stereo not given) [Eriodictyol] | 1.57
38 | OCC(CO)NC1CC(O)(CO)C(O)C(O)C1O (stereo not given) [Voglibose] | 1
39 | Nc1ncnc2c1ncn2C1OC(COP(=O)(O)OP(=O)([O-])OP(=O)([O-])O)C(O)C1O.[Na+].[Na+] (stereo not given) [Adenosine disodium triphosphate] | 1.03
40 | CC(O)C1C(=O)N2C(C(=O)O)=C(SCCNC=N)CC12.O (stereo not given) [Imipenem] | 0.907
